Assay results published in PubChem BioAssay AID485344 (National Center for Advancing Translational Sciences (NCATS), 2010).
About 6,900 (2%) of roughly 340,000 compounds were called active. Rule as the data show it: active = inhibition above about 30%; inactive = below that, where a call was filed. The entries are a selection whose mix differs from that of the whole data set. The source gives no active or inactive call for entries shown without one.

Target: D(2) dopamine receptor (Homo sapiens) (UniProt P14416)
Sequence of UniProt P14416 (P14416 whole entry, looked up): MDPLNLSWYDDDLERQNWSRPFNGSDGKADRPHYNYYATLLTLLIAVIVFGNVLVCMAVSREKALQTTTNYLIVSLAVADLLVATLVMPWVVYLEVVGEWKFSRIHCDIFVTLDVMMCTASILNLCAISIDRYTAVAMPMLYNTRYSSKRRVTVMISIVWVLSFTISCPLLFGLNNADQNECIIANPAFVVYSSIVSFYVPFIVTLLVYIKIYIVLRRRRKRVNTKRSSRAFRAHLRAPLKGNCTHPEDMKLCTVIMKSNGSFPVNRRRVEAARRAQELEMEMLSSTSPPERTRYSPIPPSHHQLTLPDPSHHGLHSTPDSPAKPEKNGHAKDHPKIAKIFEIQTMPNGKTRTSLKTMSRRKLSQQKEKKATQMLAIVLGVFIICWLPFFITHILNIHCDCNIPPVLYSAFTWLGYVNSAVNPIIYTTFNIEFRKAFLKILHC
Assay: HTS Assay for Allosteric Antagonists of the Human D2 Dopamine Receptor: Primary Screen for Antagonists; also: 0% is about no effect
Conditions: HEK293 TREx D2 cells, calcium flux, dopamine EC80; at 10 µM; stronger effect = higher value
How it was run: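 HEK293 T-REx D2 cells, tet-induced, calcium dye no-wash. Cpd pintool add, 180 s kinetic, then EC80 DA, 180 s kinetic. Ca flux read.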

With `O=C(NC1CCN(Cc2ccccc2)CC1)c1cn(-c2ccccc2)nc1-c1cccnc1` the inhibition was active: 74.7%.
With `CN1CCc2nc(SCCOc3ccccc3)c(C#N)cc2C1` the inhibition was active: 30.9%.
In the case of `S=C(NCc1ccc2c(c1)OCO2)NC1CCN(Cc2ccccc2)CC1`, the inhibition is reported as active: 103%.
For `CCCCOc1ccccc1N1CCN(CCCN2C(=O)C3CCCN3C2=O)CC1` (centres undefined), the inhibition was active: 76.2%.
In the case of `Cc1ccc(CNC(=O)CCS(=O)(=O)c2ccc3c(c2)oc(=O)n3C)cc1`, the inhibition is reported as active: 30.3%.
With `O=C1CC(N2CCC(c3nc4ccccc4s3)CC2)C(=O)N1` (centres undefined) the inhibition was active: 32.8%.
In the case of `CCOC(=O)C(=CNCC(=O)OC)C(=O)OCC`, the inhibition is reported as active: 36.1%.
For `Cc1ccc2nc(SCC(=O)Nc3ccc(C)c(Cl)c3)nc(=O)n2c1`, the inhibition was active: 34.7%.
For `CS(=O)(=O)N1N=C(c2cccs2)CC1c1ccccc1` (centres undefined), the inhibition was active: 31.8%.
`Cc1[nH]c2ccccc2c1/C=N/Nc1ccc(F)cc1F` was tested, and the inhibition was active: 31.4%.

Point of comparison: `COc1ccc(OC)c(CCNC(=O)c2cc3c(=O)oc4ccc(C)cc4c3s2)c1`, inhibition -1.4%. Against it:
- O=c1c(S(=O)(=O)c2ccccc2)cn(Cc2ccccc2)c2cc(N3CCOCC3)c(F)cc12 — higher, 7.27%
- CC(C(=O)NCc1ccccc1F)n1ccc2cc(S(=O)(=O)N3CCCC3)ccc21 (centres undefined) — higher, 2.85%
- CCc1ccccc1NC(=O)Nc1cc(C(=O)NCc2ccc(C)cc2)ccc1N1CCCC1 — lower, -5.57%
- CCOc1ccccc1NC(=O)c1c(NC(=O)c2cccc(C)c2)sc2c1CCCC2 — higher, 1.16%
- COc1ccc(Br)cc1C(=O)Nc1nc2ccc(F)cc2s1 — higher, 9.76%
- Cn1nc(-c2ccc(C(=O)Nc3ccc(F)cc3)cc2)c2ccccc2c1=O — lower, -2.31%
- COCCCNC(=O)CCCCn1c(=O)c2ccccc2n(CC(=O)Nc2ccc(C)cc2C)c1=O — higher, 3.42%
- COc1ccc2cc(-c3nc4ccc(C(=O)O)cc4[nH]3)c(=O)oc2c1 — higher, 14.1%
- Cc1cccn2c(=O)c3cc(C#N)c(=O)n(-c4nnc(SCc5ccccc5F)s4)c3nc12 — higher, 18.7%
- CC(C)c1ccc(S(=O)(=O)NCc2ccc3c(c2)CCN3C(=O)c2ccccc2)cc1 — lower, -8.38%
- COc1ccc(CNC(=O)c2ccc3c(c2)nc2n3CCC(C)C2)c(OC)c1 (centres undefined) — higher, 11%
- COCCNC(=O)CSc1nc2cc3c(cc2c(=O)n1CCCCCC(=O)NCc1ccc(OC)cc1)OCO3 — lower, -8.27%
- CCOc1ccccc1NC(=O)Cn1nnc2sc(-c3ccccc3)cc2c1=O — higher, 15.4%
- COc1ccc(Nc2ncc3c(n2)CCN(Cc2cc(Br)cs2)C3)c(OC)c1 — higher, 1.78%
- COc1ccccc1NC(=O)c1cc2c(=O)oc3ccc(C)cc3c2s1 — higher, 7.56%
- CCOC(=O)c1ccc(N2CCN(c3cc(C)ccc3C)CC2)c(NC(=O)Nc2ccccc2)c1 — lower, -7.82%
- Cc1ccc(NC(=O)CSc2nc3c(oc4ccccc43)c(=O)n2-c2ccc(F)cc2)c(C)c1 — lower, -7.33%
- CCCCOc1ccccc1C(=O)N(Cc1ccc(C)o1)C1CCS(=O)(=O)C1 (centres undefined) — higher, 7.6%
- O=C(O)CSc1c2c(nc3cc(C(=O)Nc4ccc(F)c(Cl)c4)ccc13)CCC2 — higher, 1.93%
- N#C/C(=C\c1ccc(Cl)cc1)c1nc(-c2cc3ccccc3oc2=O)cs1 — lower, -2.26%
- CCOC(=O)c1sc2cccc(F)c2c1S(=O)(=O)N1CCN(c2cccc(Cl)c2)CC1 — lower, -17.2%
- CCCn1c2ccccc2c2cnn(CC(=O)N3CCC(C)CC3)c(=O)c21 — higher, 8.42%
- CCc1ccc(CNC(=O)c2cnc3sc4cc(OC)ccc4n3c2=O)cc1 — lower, -14.5%
- CCc1ccc(NC(=O)C(=O)NCCc2csc(-c3ccc(C(F)(F)F)cc3)n2)cc1 — higher, 3.63%
- Cc1cc(C)c(NC(=O)Cn2c(=O)n(Cc3ccc4c(c3)OCO4)c(=O)c3ccc(C(=O)NC4CCCCC4)cc32)c(C)c1 — lower, -7.72%
- O=C(NCc1ccccc1F)c1ccc(CN2CC(=O)N3CCCCC3C2=O)cc1 (centres undefined) — higher, 2%
- CCOC(=O)c1[nH]c(C)c(CCC(=O)NCc2ccc(OCC)cc2)c1C — lower, -3.95%
- Cc1ccc(NC(=O)c2c(C)oc3ccc(O)c(CN4CCCCCC4)c23)c(C)c1 — higher, 10.1%
- CC(C)OCCCNC(=O)c1cc2c(-c3ccc(Cl)cc3)nn(C)c2s1 — lower, -6.23%
- COc1ccc2c(C)c(CC(=O)NCc3ccc(C)cc3)c(=O)oc2c1OC — higher, -0.122%
- CCCCC(Sc1nc2cc3c(cc2c(=O)n1CCCC(=O)NCc1ccc(OC)cc1)OCO3)C(=O)OCC (centres undefined) — lower, -9.26%
- COc1cc(NC(=O)C2CCCN(S(=O)(=O)c3ccc4c(c3)oc(=O)n4C)C2)c(C(=O)O)cc1OC (centres undefined) — lower, -19.2%
- Cc1cccc(C)c1Nc1sc(C(=O)c2ccccc2)c(N)c1C(=O)Nc1ccc(F)cc1 — higher, 3.4%
- COc1cccc(-c2ccc3c(N)c(C(=O)c4ccc(Cl)cc4)sc3n2)c1 — lower, -10.3%
- CCC(C)NC(=O)Cn1ncc2c([nH]c3ccc(C)cc32)c1=O (centres undefined) — lower, -18.3%
- O=C(Nc1nc2n(n1)C(c1ccccc1)C=C(c1ccccc1)N2)c1ccc(Cl)c([N+](=O)[O-])c1 (centres undefined) — higher, 10.3%
- CCOC(=O)c1ccc(N2C(=O)c3n[nH]c(-c4cccs4)c3C2c2ccc(C(C)(C)C)cc2)cc1 (centres undefined) — lower, -2.42%
- CCOc1ccccc1NC(=O)Cn1c(=O)n(Cc2ccccc2)c(=O)c2c(C)c(C)sc21 — lower, -8.82%
- CCc1cccc(NC(=O)Cn2nc(-c3ccc(OC)cc3)ccc2=O)c1 — higher, 7.22%
- O=C(NCCSCc1cccc(Cl)c1)C1CCN(S(=O)(=O)Cc2ccccc2)CC1 — lower, -6.62%
- Cc1ccc(Cl)cc1NC(=O)CSc1ccc(C(=O)O)cn1 — higher, 11.5%
- CCN(CC)c1ccc(NC(=O)c2cc(C)nc3c2c(C)nn3-c2cccc(F)c2)c(C)c1 — higher, 0.292%
- O=C1CC(c2ccccc2)Sc2nc(-c3ccc(F)cc3)nn21 (centres undefined) — lower, -7.27%
- O=C(c1[nH]c2ccccc2c1Sc1ccc(Cl)cc1)N1CCCCC1 — higher, 24.3%
- Cc1ccc(OCC(=O)OCc2cc(=O)n3nc(C4CCCCC4)sc3n2)cc1C — higher, 9.35%
- COc1ccc(C(=O)Nc2cc(C(C)C)c(O)c(S(=O)(=O)c3ccc(Cl)cc3)c2C)cc1 — lower, -3.35%
- CCOc1ccccc1CNCc1c(C(=O)O)c(C)n(Cc2ccc(Cl)cc2)c1C — lower, -28.4%
- CCN(Cc1ccccc1)Cc1c(O)ccc2c(=O)c(-c3ccccc3)c(C(F)(F)F)oc12 — higher, 15.4%
- CCOc1cccc(CC(=O)N2CCc3c([nH]c4ccccc34)C2c2ccccc2)c1OCC (centres undefined) — higher, -0.0766%
- CCn1nc(C)c2c(-c3ccccc3)cc(=O)n(C(C)C(=O)NCc3cccc(OC)c3)c21 (centres undefined) — higher, 3.63%
- CCC1CCCCN1CCCNC(=O)c1ccc2c(c1)N(Cc1ccccc1)C(=O)c1ccccc1S2(=O)=O (centres undefined) — higher, 22.5%
- CCN(CC)c1ccc(CN(C(=O)Cc2coc3ccc(C)cc23)C2CCS(=O)(=O)C2)cc1 (centres undefined) — lower, -13.8%
- CCc1ccc(OCCCn2c(-c3ccc(Cl)cc3)nc3ccccc3c2=O)cc1 — higher, 4.13%
- Cc1ccc(-c2nc3scc(CCNS(=O)(=O)c4ccc(F)c(C)c4)n3n2)cc1 — lower, -24%
- COc1ccc(-c2nc3cc(C(C)C)ccc3o2)cc1NC(=O)COc1ccc(C)cc1C — lower, -2.19%
- CCN(CC)CCNC(=O)c1ccc2c(c1)NC(=O)C(CS(=O)(=O)Cc1cccc(Br)c1)N2 (centres undefined) — lower, -8.97%
- O=C(Cn1c(=O)c2ccccc2n(CC(=O)Nc2ccc(F)cc2F)c1=O)NCCc1ccccc1 — higher, 20.4%
- COc1ccc(NC(=O)CCSc2nc(-c3ccco3)cc(C(F)(F)F)n2)cc1 — lower, -8.01%
- Cc1ccc(C)c(Nc2ncnc3onc(C)c23)c1 — lower, -8.68%
- COc1ccc(NC(=O)CSc2ncccc2C(=O)O)cc1OC — lower, -6.36%
- Cc1nnc(N2CCCC(C(=O)NCc3ccccc3F)C2)c2nn(-c3ccc(Cl)cc3)c(C)c12 (centres undefined) — lower, -2.91%
- COc1ccc(C(=O)NCc2nnc(SCC(=O)Nc3ccccc3)n2-c2ccccc2)cc1 — higher, 5.9%
- COc1cc(Cl)c(C)cc1NC(=O)c1ccc2c(SCC(=O)O)c3c(nc2c1)CCCC3 — higher, 9.89%
- Cc1ccc(-n2nnc(-c3nsc(NC(=O)c4cccc(Cl)c4)n3)c2C)cc1C — lower, -2.11%
- O=C(CSc1n[nH]c(-c2ccccc2)n1)NCCCc1ccccc1 — lower, -20.9%
- COCCCNc1nc2cc(OC)c(OC)cc2c2nc(-c3ccccc3)nn12 — higher, 9.92%
- Cc1ccccc1N1CC(C(=O)Nc2ccc(Br)cc2)CC1=O (centres undefined) — lower, -21%
- CCn1c(=O)c(=O)n(CC)c2cc(N3CCCCC3)c(NC(=O)c3ccc(Cl)cc3)cc21 — lower, -11.5%
- COc1ccc(CNC(=O)CN2N=C(c3ccccc3)CCC2=O)c(OC)c1 — lower, -12.6%
- CC(=O)Nc1ccc(NC(=O)C2CCCN2S(=O)(=O)c2ccc3c(c2)CCCC(=O)N3)cc1 (centres undefined) — higher, -0.511%
- O=C(Nc1ccc2nc(SCc3ccccc3)sc2c1)c1ccccc1F — higher, 1.46%
- O=C(Nc1ccc(F)c(Cl)c1)c1cc(S(=O)(=O)N2CCc3ccccc3C2)ccc1F — lower, -20.1%
- Cc1ccc(OCC(=O)Nc2ccc3c(c2)nc(CCNC(=O)c2ccco2)n3C)cc1 — lower, -6.79%
- O=C(Nc1ccc2oc(-c3cccnc3)nc2c1)c1ccc(-c2ccc(OC(F)(F)F)cc2)o1 — higher, 11.2%
- COc1ccc(N2CCN(C(=O)CN3C(=O)CSc4c3c(C)nn4-c3ccccc3)CC2)cc1 — higher, 1.2%
- CC(C)CCNC(=O)c1ccc2c(c1)N(Cc1cccc(Cl)c1)C(=O)c1ccccc1S2 — higher, 25.3%
- CCCC(=O)n1nc(-c2ccco2)nc1NCc1ccccc1Cl — higher, 13.1%
- Cc1cc2nn(-c3ccc(F)cc3)nc2cc1NC(=O)c1cccc2ccccc12 — higher, -1.36%
- O=C(Nc1nnc(S(=O)(=O)N2CCOCC2)s1)c1ccccc1Cl — lower, -4.17%
- CN(C)CCCN(C(=O)c1ccc2c(c1)OCCO2)c1nc2ccccc2s1 — higher, 19.6%
- COc1cccc(CNC(=O)CSc2c3c(nc4cc(Cl)ccc24)CCCC3)c1 — higher, 0.598%
- CCOc1ccccc1NC(=O)Cn1cc(C(=O)c2ccc(Cl)cc2)c(=O)c2ccc(C)nc21 — lower, -10.1%
- COc1ccc(Cn2c(=O)c3oc4ccccc4c3n(Cc3cccc(C)c3)c2=O)cc1 — higher, -0.672%
